The text below walks through data of PMC10668032.

Some of the results follow. At the low end of the ranking, values are background and their order means little.

In this test the target is SIX1 homeodomain (reference allele) (UniProt Q15475). Kind of test: universal protein binding microarray. The conditions noted are these: Universal all-10-mer PBM (8x60K, AMADID 030236), 300 nM GST-tagged protein, Alexa Fluor 488 anti-GST; buffer, salt, pH and temperature not stated; high values mean tight binding; most listed sequences are background and not binding sites; double strand, one strand shown.
Regarding CTGGGCTC, the binding signal is -0.17 E-score. Consider GAAGTGAC, for which the binding signal is -0.22 E-score. For GCCGACCC, the binding signal was -0.131 E-score.

Turning to ATATGAAG, the binding signal came to 0.0142 E-score.

Consider CTATGCAA, for which the binding signal was -0.159 E-score. For the sequence CGACACAG, the binding signal is -0.0271 E-score. TAAGAGGA: the binding signal is 0.0461 E-score. As to GGTCGGTA, the binding signal is 0.0287 E-score. Then GCAGCGGC, with -0.302 E-score; and CGTAAGAC, with -0.0929 E-score. Consider ACTCACCG, for which the binding signal is -0.128 E-score.

GTGTGAAA: the binding signal is -0.0509 E-score.

GAATCGAC: the binding signal was -0.06 E-score. As to GAAGTCAA, the binding signal was -0.225 E-score. Then AAATTGTT, with -0.186 E-score; and AGTACCGC, with -0.199 E-score; and AATGTTCT, with -0.221 E-score. Consider AGTTGAAT, for which the binding signal was -0.255 E-score.

Take CTTGAAAC: the binding signal was -0.0949 E-score. As for CTGGTAGA, the binding signal came to 0.0218 E-score. On to GCCTTCGC, for which the binding signal is -0.159 E-score. Regarding GTTAATCA, the binding signal was -0.0969 E-score. With GGCGTATA the figure was 0.179 E-score; with ACGTATTA, 0.306 E-score; with CATGAATC, -0.0505 E-score. With AGATCGGA the figure was 0.255 E-score. With CCACATAC the figure was 0.0202 E-score; with ATTAGCGG, 0.00822 E-score.

Take AGGAGCAG: the binding signal was -0.252 E-score. Then ACTAGACC, with 0.116 E-score; and CGTTCTCC, with -0.135 E-score. With ACTGATCT the figure was 0.34 E-score; with AGTTGGCC, -0.306 E-score; with TATGCAGA, 0.135 E-score. In the case of AAACAGAG, the binding signal was -0.257 E-score. Then AGTTAGAC, with 0.017 E-score. For ACCAGGCC, the binding signal was -0.00415 E-score.

Regarding GGGAGTCA, the binding signal is -0.079 E-score. For the sequence GCCCAGGA, the binding signal is 0.088 E-score.

Regarding ACCTAAAA, the binding signal is -0.165 E-score. As for CCAGTATA, the binding signal came to 0.133 E-score. In the case of CTGAGCAC, the binding signal was -0.0551 E-score. As to AAGTTCAA, the binding signal is -0.108 E-score. Consider ATTGGTAA, for which the binding signal was -0.149 E-score. Then CACTACAG, with 0.0478 E-score; and AGCACTGA, with -0.22 E-score. AGTACTCC: the binding signal was -0.109 E-score. Then TCACAGAA, with 0.0147 E-score; and AGATTATA, with 0.186 E-score; and AAGGTGTA, with 0.134 E-score. For the sequence GTTTGGGA, the binding signal was -0.0271 E-score. Take CAGCCAAC: the binding signal is -0.143 E-score.

Turning to CCGCGAAA, the binding signal was 0.00208 E-score. With AAGCGACT the figure was -0.177 E-score; with ATGGCCTG, -0.105 E-score.

Turning to GCGAAGCC, the binding signal was -0.222 E-score. For the sequence ATTGACTA, the binding signal was determined as 0.0925 E-score.

As for AGCGCCAG, the binding signal is -0.0548 E-score.

On to ATAGGGTA, for which the binding signal was 0.295 E-score. Turning to CAGAGGCG, the binding signal is -0.188 E-score. Turning to CGAAGTAC, the binding signal is 0.0261 E-score. Regarding AACCTCTA, the binding signal was -0.0947 E-score. With ATCTAAAA the figure was 0.00047 E-score. With CCATGGAA the figure was -0.227 E-score; with TTCCAAAA, -0.238 E-score.

ATTGCCGA: the binding signal is -0.0271 E-score. As for AAGCCCCG, the binding signal is -0.135 E-score. Turning to CCATCTGC, the binding signal was 0.0909 E-score. Turning to ACTATTTC, the binding signal was -0.162 E-score.

Turning to ACTACTTA, the binding signal was -0.102 E-score. Turning to ACTCCAGC, the binding signal turned out to be 0.0597 E-score. On to GTGTAAAA, for which the binding signal is -0.0529 E-score.

For AGGATGGC, the binding signal is -0.0238 E-score. On to GACGATTA, for which the binding signal came out at 0.00313 E-score. For CTGCGGAC, the binding signal is -0.148 E-score. With GGGTGACC, the binding signal was -0.185 E-score. Consider ATATAGTA, for which the binding signal worked out at 0.304 E-score. Turning to CTCCCGTA, the binding signal worked out at 0.117 E-score. On to ACACTTCG, for which the binding signal was -0.0736 E-score. ATCTTAGA: the binding signal is 0.217 E-score. For the sequence GATTGCAA, the binding signal was -0.105 E-score. Turning to AAAGGAAG, the binding signal is -0.269 E-score.

As for GCGTTCCC, the binding signal is -0.145 E-score.

With TCAAGGCA, the binding signal was -0.142 E-score. Then CCAGCGCG, with -0.044 E-score; and AGCAATGA, with -0.174 E-score; and AATGTATG, with -0.139 E-score. With CGTTCCCA the figure was -0.213 E-score; with AAACCTCC, 0.0453 E-score.

With CGCCTCCG, the binding signal came out at 0.0049 E-score. Turning to CAGAGAAA, the binding signal worked out at 0.0176 E-score. Take CTGGATTC: the binding signal was 0.0609 E-score. TCCTTTAA: the binding signal was -0.0192 E-score. As to CCTTGTAC, the binding signal was -0.153 E-score. Turning to CCGCTGAG, the binding signal turned out to be 0.0556 E-score. For the sequence AATTTTGG, the binding signal was -0.0838 E-score. With ACGGAAAG the figure was -0.0772 E-score; with ACCGGGAT, 0.313 E-score. For the sequence CCACTTCC, the binding signal is -0.132 E-score. Consider AAATGCTT, for which the binding signal was -0.247 E-score. In the case of TACTCTAA, the binding signal was determined as 0.11 E-score.

With ATAGCTTG, the binding signal was determined as 0.056 E-score. As for TGTACCAA, the binding signal was -0.0246 E-score.

Consider ACGACTAT, for which the binding signal is 0.141 E-score. As to GAAACGTC, the binding signal is -0.259 E-score. Take GCTTCGCA: the binding signal was -0.236 E-score.

GGGGCAAA: the binding signal is -0.03 E-score.

On to GATCTACC, for which the binding signal came out at 0.343 E-score. For GAATTGCC, the binding signal is -0.293 E-score.
